Measurements reported in PubChem BioAssay AID588342 (National Center for Advancing Translational Sciences (NCATS), 2011).
The whole screen tested about 360,000 compounds, of which about 25,000 (6.9%) were called active. The inconclusive results got no clear call from the source; some entries with a clear call stand among them for comparison. The call rests on the fitted dose curve; in most records, active means well fitted inhibition curve with a large enough effect; inconclusive means small, poorly fitted or top-dose-only effect; inactive means flat fitted curve, though single readings scatter. A potency beside an inconclusive call is a rough fit, not a confirmed value.

Molecular target: Luciferin 4-monooxygenase (Photinus pyralis) (UniProt P08659)
Assay: qHTS profiling assay for firefly luciferase inhibitor/activator using purifed enzyme and Km concentrations of substrates (counterscreen for miR-21 project); further: nearly all actives have a fitted effect of over 55% in size;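 on activity change, negative = inhibition: plate controls were vehicle for no effect and reference inhibitor for full effect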
Settings: purified FLuc, luminescence inhibition; series mostly up to 57.5 µM; activity change, negative = inhibition: at the top concentration
In short: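 Purified P. pyralis luciferase (10nM final) with 10uM D-luciferin and 10uM ATP (Km levels) in 50mM Tris acetate pH 7.5, 10mM Mg acetate, 0.01% Tween-20, 0.05% BSA; qHTS 6-point titration, ~60 µM downward; luminescence read.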
Potency means the concentration at half of the fitted maximal effect; tags describe the fitted curve by direction and shape.

Chain of UniProt P08659 (P08659 whole entry, looked up): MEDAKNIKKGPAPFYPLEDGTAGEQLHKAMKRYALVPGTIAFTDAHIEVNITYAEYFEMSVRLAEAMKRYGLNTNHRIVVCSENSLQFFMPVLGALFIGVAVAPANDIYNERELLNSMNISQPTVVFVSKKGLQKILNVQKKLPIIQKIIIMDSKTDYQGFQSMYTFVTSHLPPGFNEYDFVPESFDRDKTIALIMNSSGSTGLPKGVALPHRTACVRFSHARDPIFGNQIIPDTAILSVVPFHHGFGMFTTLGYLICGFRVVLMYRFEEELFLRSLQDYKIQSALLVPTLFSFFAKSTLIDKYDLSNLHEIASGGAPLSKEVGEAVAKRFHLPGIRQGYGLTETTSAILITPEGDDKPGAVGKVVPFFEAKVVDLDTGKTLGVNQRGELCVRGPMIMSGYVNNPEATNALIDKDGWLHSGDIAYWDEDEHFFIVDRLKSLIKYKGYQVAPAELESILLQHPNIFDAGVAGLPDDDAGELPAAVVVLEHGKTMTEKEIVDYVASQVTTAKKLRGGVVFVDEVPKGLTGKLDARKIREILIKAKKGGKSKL

| Structure (SMILES) | Potency | activity change, negative = inhibition |
| --- | --- | --- |
| Cc1cccc(Nc2nc(C)nc3c2oc2ccccc23)c1 | inconclusive: 37.9 µM [inhibitor, partial curve, poor fit] |  |
| CNS(=O)(=O)c1cccc(C(=O)OCC(=O)Nc2ccc(N3CCCCC3)cc2)c1 | inconclusive: 12 µM [inhibitor, partial curve, poor fit] |  |
| CCCC(=O)Nc1c(-c2ccc(C)cc2)c(=O)c2ccccc2n1C |  | inactive: -0.983% |
| CCOC(=O)C1=C(N)N2C(=O)C(C)SC2=C(C(=O)OCC)C1c1cc(OC)c(OC)c(OC)c1 (stereo not drawn) |  | inactive: -0.321% |
| C(=N\Nc1ncnc2sc3c(c12)CCC3)/c1ccncc1 | inconclusive: 37.9 µM [inhibitor, single point] |  |
| Cc1ccc(NC(=O)c2c(O)c3ccccc3n(C)c2=O)nc1 | inconclusive: 1.9 µM [inhibitor, partial curve, poor fit] |  |
| Cc1ccc(-n2cc(CN3CCN(Cc4nccn4C)CC3)c(-c3cccc(C)c3)n2)cc1 | inconclusive: 37.9 µM [inhibitor, single point] |  |
| Cc1cc(C)n2c(Nc3ccc4c(c3)OCCO4)c(-c3ccc(C)o3)nc2n1 | inconclusive: 23.9 µM [inhibitor, partial curve, poor fit] |  |
| O=C(Nc1nnc(C2CC(=O)N(c3ccc(Cl)cc3)C2)s1)c1ccco1 (stereo not drawn) | inconclusive: 26.9 µM [inhibitor, single point] |  |
| COc1cc(NC(=S)Nc2ccccn2)cc(OC)c1 | active: 9.53 µM |  |
| Cc1ccccc1C(OCC(O)CN1CCN(CCO)CC1)c1ccccc1 (stereo not drawn) |  | inactive: 1.24% |
| CO/N=C/C(NC(=O)c1ccc(C(F)(F)F)cc1)C(=O)OC (stereo not drawn) | inconclusive: 37.9 µM [inhibitor, single point] |  |
| CCOC(=O)C1CCN(C(=O)COc2cccc3ccccc23)CC1 | inconclusive: 23.9 µM [inhibitor, single point] |  |
| COc1cccc(C(=O)Nc2cnn(C(C)C)c2)c1 | inconclusive: 19 µM [inhibitor, partial curve] |  |
| N/C(Cc1ccc([N+](=O)[O-])cc1)=N\OC(=O)c1ccc2ccccc2c1 | inconclusive: 21.3 µM [inhibitor, single point] |  |
| COC(=O)c1sc2cccc(F)c2c1S(=O)(=O)Nc1ccc(C)cc1Cl | inconclusive: 21.3 µM [inhibitor, partial curve, poor fit] |  |
| Cc1c(C)n(CCc2ccccc2)c2ncnc(NCCO)c12 | active: 16.9 µM |  |
| O=C(N/N=C/c1ccc(OCc2ccccc2)cc1)c1cc[n+](Cc2ccccc2)cc1 | inconclusive: 30.1 µM [inhibitor, partial curve, poor fit] |  |
| O=S(=O)(Nc1cc(Sc2ncn[nH]2)c(O)c2ccccc12)c1ccccc1 | active: 10.7 µM |  |
| CCC(C)c1ccc(NC(=O)c2ccco2)cc1 (stereo not drawn) | active: 0.426 µM |  |
| COC(=O)c1ccc(NC(=O)c2cn(-c3cccc(C)n3)cn2)cc1 |  | inactive: 3.07% |
| COc1ccc(N2CCN(C(=O)COC(=O)COc3ccc(C#N)cc3)CC2)cc1 | inconclusive: 7.57 µM [inhibitor, partial curve, poor fit] |  |
| O=C(c1ccc(F)cc1)N1CCC(n2nnc3ccccc32)CC1 | active: 2.69 µM |  |

| Structure (SMILES) | Potency | activity change, negative = inhibition |
| --- | --- | --- |
| CCOc1ccc(C(=O)NCC2CCCO2)cc1 (stereo not drawn) | inconclusive: 26.9 µM [inhibitor, single point] |  |
| NC(=O)c1ccc(CSc2nc3ccccc3s2)cc1 | inconclusive: 21.3 µM [inhibitor, partial curve] |  |
| COc1ccc(-c2noc(-c3ccc(C)cc3Cl)n2)cc1OC | inconclusive: 0.536 µM [inhibitor, full curve] |  |
| COC(=O)N1CCCc2cc(S(=O)(=O)N3CCN(c4ccccc4)CC3)ccc21 |  | inactive: -5.98% |
| CCN(CC)C(=O)CSc1nnc([C@@H](N)C(C)C)o1 |  | inactive: 0.191% |
| COc1cc(Cl)c(C)cc1NC(=O)CSc1nc2c(c(=O)[nH]1)CCCC2 |  | inactive: 1.66% |
| CCOC(=O)c1cccc(NC(=O)CC2C(=O)N(c3ccc(C)cc3)C(=O)N2Cc2cccc(OC)c2)c1 (stereo not drawn) | inconclusive: 15.1 µM [inhibitor, partial curve, poor fit] |  |
| Cc1ccc(C)c(Cn2c(=O)n(CCC(=O)NCc3ccc4c(c3)OCO4)c(=O)c3sccc32)c1 |  | inactive: 1.45% |
| Cc1cc(Cl)c2oc(C(=O)NCC(C)(C)N3CCOCC3)c(C)c2c1 | inconclusive: 21.3 µM [inhibitor, partial curve] |  |
| CCSc1nc2sc3c(c2c(=O)[nH]1)CC(C)(C)OC3 | inconclusive: 23.9 µM [inhibitor, partial curve, poor fit] |  |
| COc1ccccc1N1CCN(C2CCN(C(=O)COc3cccc(C)c3)CC2)CC1 |  | inactive: -1.37% |
| O=C(Nc1ccc(-c2nc3ccccc3s2)c(OC(=O)c2ccccc2)c1)c1ccccc1 | inconclusive: 30.1 µM [inhibitor, partial curve, poor fit] |  |
| Oc1ccc(/C=N/NC(=S)NCc2ccco2)cc1 | inconclusive: 30.1 µM [inhibitor, partial curve, poor fit] |  |
| COc1ccc(C(=O)NCc2ccc(-c3nc4ccccc4s3)cc2)cc1 | active: 2.39 µM |  |
| Cc1c(CCC(=O)N[C@@H](C)C(=O)O)c(=O)oc2c(C)c3oc4c(c3cc12)CCCC4 | inconclusive: 37.9 µM [inhibitor, partial curve, poor fit] |  |
| CC1Oc2ccccc2C=C1/C=N/Nc1ccc(C(=O)O)cc1 (stereo not drawn) | active: 0.536 µM |  |
| Cc1ccc(/C=N/NC(=O)c2cc3c(s2)CCCC3)o1 |  | inactive: -19.4% |
| COc1ccc(-c2nc(C)c(CCNC(=O)c3c(F)cccc3F)s2)cc1 | inconclusive: 16.9 µM [inhibitor, partial curve] |  |
| Cn1cnc2cc(NC(=O)COc3ccccc3)ccc21 | active: 23.9 µM |  |
| O=C(CSc1nc2cc(Cl)ccc2s1)c1ccco1 | inconclusive: 37.9 µM [inhibitor, single point] |  |
| Cc1cccc(N2CCN(C(=O)c3ccc(Cl)c(NC4=NC5CS(=O)(=O)CC5S4)c3)CC2C)c1 (stereo not drawn) |  | inactive: 3.01% |
| COC(=O)c1ccc(/C=C2/SC(=S)N(CCC(=O)NCCCN3CCOCC3)C2=O)cc1 | inconclusive: 19 µM [inhibitor, single point] |  |
| Cc1ccc2nc(-c3ccc(NC(=O)c4ccccc4S(C)(=O)=O)cc3)sc2c1 | active: 21.3 µM |  |

| Structure (SMILES) | Potency | activity change, negative = inhibition |
| --- | --- | --- |
| Cc1nc(NC(=O)CSc2nc3ccccc3s2)sc1C(=O)N(C)C | inconclusive: 26.9 µM [inhibitor, partial curve, poor fit] |  |
| CC(=O)Nc1cccc(N=NN2CCCCC2)c1 | active: 16.9 µM |  |
| CSCCC(NC(=O)COc1ccccc1)C(=O)OCC(=O)c1cc2ccccc2o1 (stereo not drawn) | inconclusive: 33.8 µM [inhibitor, single point] |  |
| Cc1ccc(CNC(=O)CSc2ncc(S(=O)(=O)c3ccc(C)c(Cl)c3)c(=O)[nH]2)cc1 | inconclusive: 9.53 µM [inhibitor, partial curve] |  |
| O=C(CCN1C(=O)/C(=C/c2ccccc2Cl)SC1=S)NCCCN1CCOCC1 | inconclusive: 37.9 µM [inhibitor, partial curve, poor fit] |  |
| COC(=O)c1ccccc1NC(=O)c1cc(C)nc2c1c(C)nn2-c1ccc(C)cc1 |  | inactive: -0.739% |
| COc1ccc(/C=N/NC(=O)CO/N=C(\C)c2cccs2)cc1 | inconclusive: 26.9 µM [inhibitor, single point] |  |
| CCCCOc1ccc(/C=N/NC(=O)C2CCCNC2=O)cc1 (stereo not drawn) | inconclusive: 30.1 µM [inhibitor, partial curve, poor fit] |  |
| COc1ccc2oc(C(=O)OCC(=O)Nc3cccc(S(=O)(=O)N4CCOCC4)c3)c(C)c2c1 | inconclusive: 16.9 µM [inhibitor, partial curve, poor fit] |  |
| CCOc1ccccc1NC(=O)CCNC(=O)c1ccc(Cl)cc1 |  | inactive: -4.97% |
| COC(=O)C1CCN(C(=O)Cc2ccc(Br)cc2)CC1 |  | inactive: -7.17% |
| O=C(CNC(=O)c1ccccc1F)OCc1cc(=O)n2nc(C3CCCCC3)sc2n1 | inconclusive: 26.9 µM [inhibitor, partial curve, poor fit] |  |
| COc1ccccc1C(=O)Nc1ccc(Cc2ccncc2)cc1 | inconclusive: 19 µM [inhibitor, partial curve] |  |
| O=c1/c(=C\c2cccnc2)sc2nc3ccccc3n12 |  | inactive: -16% [at 2.3 µM] |
| O=C(NCc1cccc(Cl)c1)C1CCCN(c2ncnc3c2nc2n3CCCCC2)C1 (stereo not drawn) |  | inactive: -3.58% |
| S=C(Nc1cccc2ccccc12)N1CCN(c2ncccn2)CC1 | inconclusive: 26.9 µM [inhibitor, partial curve, poor fit] |  |
| O=C(Nc1cc2ccc(O)cc2oc1=O)c1ccccc1 | active: 5.36 µM |  |
| Cc1cc(C(=O)Nc2nc(-c3ccccn3)cs2)ccc1[N+](=O)[O-] | inconclusive: 16.9 µM [inhibitor, partial curve, poor fit] |  |
| CCCCn1c(N)c(N(CC(C)C)C(=O)CSc2n[nH]c(-c3ccc(C)cc3)n2)c(=O)[nH]c1=O | active: 10.7 µM |  |
| CN(Cc1ccccc1)c1ccc(S(=O)(=O)N2CCC(C(=O)O)CC2)cc1[N+](=O)[O-] | inconclusive: 15.1 µM [inhibitor, partial curve, poor fit] |  |
| O=C(OCC(=O)N1CCCCC1)c1cc(NS(=O)(=O)c2ccc(Cl)c([N+](=O)[O-])c2)ccc1O | inconclusive: 30.1 µM [inhibitor, single point] |  |
| OCCN(Cc1ccccc1)CC(O)COc1ccc(-c2ccccc2)cc1 (stereo not drawn) | inconclusive: 33.8 µM [inhibitor, partial curve, poor fit] |  |
